Experimental data: PubChem BioAssay (Tox21)
Values joined by “and” are separate entries in the source; they are usually repeats but may differ in a detail not shown here. Equal entries are not always repeated. The inconclusive results got no clear call from the source; some entries with a clear call stand among them for comparison. A potency beside an inconclusive call is a rough fit, not a confirmed value. Active and inactive are the calls of the source. The call rests on the fitted dose curve; in most records, active means well fitted inhibition curve with a large enough effect in the signal ratio in the repeat runs (not every such curve was filed as active); inconclusive means weak or mixed curves, or effect the other way; inactive means no such curve, though single readings can be large or run the other way; the % refers to the signal ratio.

molecular target: Bile acid receptor (Homo sapiens) (UniProt Q96RI1); test: qHTS assay to identify small molecule antagonists of the farnesoid-X-receptor (FXR) signaling pathway (AID 743217); conditions: HEK293T FXR-UAS-bla, beta-lactamase ratio, CDCA-stimulated, 16 h; activity change, negative = inhibition: at 62.6 µM (top of the series) unless noted
UniProt Q96RI1, sequence (Q96RI1 whole entry, looked up): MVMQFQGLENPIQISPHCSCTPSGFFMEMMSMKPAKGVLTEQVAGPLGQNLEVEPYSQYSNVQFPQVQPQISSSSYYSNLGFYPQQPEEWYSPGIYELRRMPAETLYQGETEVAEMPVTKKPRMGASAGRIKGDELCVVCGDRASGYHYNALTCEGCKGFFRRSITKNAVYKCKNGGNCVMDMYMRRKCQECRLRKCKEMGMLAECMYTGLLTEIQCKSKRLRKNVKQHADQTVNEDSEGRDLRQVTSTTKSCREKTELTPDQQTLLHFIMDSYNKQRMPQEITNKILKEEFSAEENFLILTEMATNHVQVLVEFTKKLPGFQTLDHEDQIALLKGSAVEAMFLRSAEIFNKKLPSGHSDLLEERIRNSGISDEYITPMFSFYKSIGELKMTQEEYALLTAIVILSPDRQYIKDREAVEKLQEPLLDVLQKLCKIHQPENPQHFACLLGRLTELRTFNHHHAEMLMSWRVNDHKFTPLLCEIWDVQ
Text: U.S. Tox21 Program National Center for Advancing Translational Sciences [NCATS] NIH Chemical Genomics Center [NCGC] U.S. Environmental Protection Agency [EPA] National Institutes of Environmental Health Sciences [NIEHS] National Toxicology Program [NTP] U.S. Food and Drug Administration [FDA] Tox21 Assay Overview: The farnesoid-X-receptor (FXR), a nuclear hormone receptor, is highly expressed in liver, intestine, kidney and adrenal cortex. Natural ligands of FXR are the bile acids (Cholic acid, Chenodeoxy cholic acid etc). FXR is an important regulator of diverse metabolic pathways, including the bile acid homeostasis, lipid and glucose metabolisms. FXR regulates the expression of target genes by binding either as a monomer or as a heterodimer with the retinoid X receptor (RXR). Numerous studies have reported that FXR exerts protective function during cholestasis, diabetes, liver regeneration, and cancer. To identify compounds that inhibit FXR signaling, GeneBLAzer FXR-UAS-bla HEK 293T cell line (Invitrogen, Carlsbad, CA) containing a beta-lactamase reporter gene under the control of a UAS response element was used to screen the Tox21 10K compound library.
Tox21 Assay Protocol Summary: FXR-bla cells were dispensed at 5000 cells/5uL/well in 1536-well black wall/clear bottom plates using a Multidrop Combi (Thermo Fisher Scientific, Waltham, MA) dispenser. After the assay plates were incubated at 37C and 5% CO2 for 5 h, 23 nL of compounds dissolved in DMSO, positive controls or DMSO only was transferred to the assay plate by a Pintool station (Kalypsys, San Diego, CA), followed by addition of 1 uL Chenodeoxycholic acid (50 uM, final concentration in the wells). The assay plates were incubated at 37C for 16 h. After 1 uL of LiveBLAzerTM B/G FRET substrate was added using a Bioraptr Flying Reagent Dispenser (FRD) workstation (Beckman Coulter, Indianapolis, IN), the plates were incubated at room temperature for 2 h, and fluorescence intensity was measured by an Envision plate reader (PerkinElmer, Shelton, CT).
On the % scale 0 is the no-effect control and ±100 the full control effect; potency means the concentration at half of the fitted maximal effect; tags describe the fitted curve by direction and shape or compound fluorescence and quenching.

SMILES	Potency	activity change, negative = inhibition
CCCOCC(=Nc1ccc(Cl)cc1C(F)(F)F)n1ccnc1	inconclusive: 54.9 µM [cytotoxic, single point]	–
c1cc[c]([Hg][c]2ccccc2)cc1	–	inconclusive: -20.5%
CCCCCCC[CH2][Sn]([Cl])([Cl])[CH2]CCCCCCC	inconclusive: 61.6 µM [rising, partial curve, poor fit]	–
CCOC(=O)c1cn2nc(OP(=S)(OCC)OCC)cc2nc1C	inconclusive: 49 µM [inhibitor]	–
CCCCOCN(C(=O)CCl)c1c(CC)cccc1CC	–	inactive: -26.5%
CCCCCCCCCCCCCCn1cc[n+](C)c1	inconclusive: 43.7 µM [cytotoxic, single point] and inconclusive: 54.4 µM	inconclusive: -12%
Sc1ccccc1Cl	–	inactive: -5.28%
O=c1oc2ccccc2c(O)c1C(CC(O)c1ccc(-c2ccc(Br)cc2)cc1)c1ccccc1 (stereo not given)	inconclusive: 52 µM [single point]	–
CC(C)=CC1C(C(=O)OCc2coc(Cc3ccccc3)c2)C1(C)C (stereo not given)	inactive and inconclusive: 38.9 µM	–
COC(=O)c1cc(Oc2ccc(Cl)cc2Cl)ccc1[N+](=O)[O-]	–	inactive: -13.6%
Cc1cc(N=Nc2ccccc2C)ccc1N	inconclusive: 49 µM [inhibitor]	inconclusive: -22%
O=C1c2ccccc2C(=O)N1SC(Cl)(Cl)Cl	inconclusive: 60.8 µM and inconclusive: 54.9 µM [inhibitor, single point]	–
CCN(N=O)C(N)=O	–	inconclusive: -4.42%
Cc1cc(SCc2sc(-c3ccc(C(F)(F)F)c(F)c3)nc2C)ccc1OCC(=O)O	inconclusive: 54.9 µM	–
CN(C)c1ccc(N=O)cc1	inconclusive: 54.9 µM [single point]	–
CC(C)C(Nc1ccc(C(F)(F)F)cc1Cl)C(=O)OC(C#N)c1cccc(Oc2ccccc2)c1 (stereo not given)	inconclusive: 62.2 µM [cytotoxic, single point]	–
CC(C)C1CCC(Cc2ccc(Cl)cc2)C1(O)Cn1cncn1 (stereo not given)	inconclusive: 54.4 µM	–
O=P(Oc1ccccc1)(Oc1ccccc1)Oc1ccccc1	inconclusive: 19.5 µM [inhibitor, partial curve]	inconclusive: -29%

SMILES	Potency	activity change, negative = inhibition
Cn1c(CCCC(=O)O)nc2cc(N(CCCl)CCCl)ccc21	–	inactive: 1.08%
O=[N+]([O-])/C=C/c1ccccc1	inconclusive: 19.8 µM [rising, full curve] and inconclusive: 21.9 µM [rising, full curve]	–
CCCCCCCCCCCCCC[P+](CCCCCC)(CCCCCC)CCCCCC	inconclusive: 55.2 µM [cytotoxic, single point] and inconclusive: 55.4 µM [cytotoxic, single point]	–
BrCC(Br)(Br)Br	inconclusive: 57 µM [inhibitor, single point]	–
CC(=O)[O][Sn]([c]1ccccc1)([c]1ccccc1)[c]1ccccc1	inconclusive: 0.549 µM [rising, partial curve]	–
CC(C)(C)c1cc(O)ccc1O	–	inconclusive: -9.53%
CCCN(CCC)c1c([N+](=O)[O-])cc(C(F)(F)F)cc1[N+](=O)[O-]	inconclusive: 21.9 µM [inhibitor, partial curve, poor fit]	–
Clc1ccc(C(c2ccc(Cl)cc2)C(Cl)Cl)cc1	inconclusive: 62.7 µM and inconclusive: 19.5 µM [inhibitor, partial curve, poor fit]	–
C[C@]12CC[C@@H]3c4ccc(OC(=O)N(CCCl)CCCl)cc4CC[C@H]3[C@@H]1CC[C@@H]2O	active: 21.1 µM	–
CC(C)CCCCCCCOP(=O)(Oc1ccccc1)Oc1ccccc1	–	inconclusive: -17.9% [at 81.1 µM]
CC1(C)C(/C=C(\Cl)C(F)(F)F)C1C(=O)OC(C#N)c1cccc(Oc2ccccc2)c1 (stereo not given)	active: 17.7 µM	–
COc1ccc(C(c2ccc(OC)cc2)C(Cl)(Cl)Cl)cc1	inconclusive: 24.4 µM	–
COP(=O)(OC)OC(Br)C(Cl)(Cl)Br (stereo not given)	inconclusive: 21.9 µM [activator, partial curve]	inconclusive: 29.2%
O=[N+]([O-])c1cc(C(F)(F)F)c(Cl)c([N+](=O)[O-])c1Cl	inconclusive: 24.5 µM [rising, partial curve]	–
Nc1ccc(-c2ccc(N)c(N)c2)cc1N	inactive and inconclusive: 38.9 µM [inhibitor, partial curve]	–
Cc1ccc(N(SC(F)(Cl)Cl)S(=O)(=O)N(C)C)cc1	inconclusive: 15.5 µM [rising, partial curve]	–
O=C(O)c1cc[c]([Hg][Cl])cc1	inconclusive: 54.9 µM [rising, partial curve, poor fit]	–
CN(C)c1ccc(C(=O)c2ccc(N(C)C)cc2)cc1	inconclusive: 1.09 µM [rising, full curve, poor fit] and inconclusive: 4.36 µM [rising, full curve, poor fit]	–
